Values marked as one replicate rest on one cluster of the flow cell; about a third of the high ones do not repeat.
test system: ATP; experiment: switch fluorescence ratio, 500 uM ATP over buffer (Cy3 cluster intensity, sum of 5 cycles each) (fold (ratio)); higher = stronger signal-on switching upon ATP binding; sequences stand for … in TCGTCGGCAGCGTCAGATGTGTATAAGAGACAGTTTTTTTTTTTTTTTTTTTTTTTTT…TC; settings: aptamer strand: ATP DNA aptamer (quencher-CACCTGGGGGAGTATTGCGGAGGAAGG + anchor), 100 nM annealed; ATP concentration: 500 uM; one replicate
Summary of the method: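 The quencher-labelled ATP aptamer, at 100 nM, was annealed to Cy3-labelled switching-strand clusters on a modified Illumina MiSeq flow-cell. The clusters were imaged in selection buffer, then after 15 min with 500 uM ATP at 22 °C, and this buffer/ATP cycle ran five times with NaOH stripping and re-annealing between runs. Per-cluster fluorescence ratios, summed target-cycle over summed buffer-cycle Cy3 intensity, were averaged per switch-domain sequence. Clusters outside 100-1000 RFU were excluded.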
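Note: ATP exposure 15 min at 22 °C before imaging.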

Q: How did the switch fluorescence ratio turn out when GGAATCCTAC was run?
A: 1.02

Q: For GGAATTAGGG, which switch fluorescence ratio is on record?
A: 0.977

Q: How did the switch fluorescence ratio turn out when GGAATTCTTA was run?
A: 1.01

Q: For GGACAAGGTC, which switch fluorescence ratio is on record?
A: 1

Q: With GGACAATAGG as the sequence, how does the switch fluorescence ratio read?
A: 0.959

Q: Which switch fluorescence ratio does the source give for GGACACATC here?
A: 1.05

Q: With GGACACGCTG as the sequence, how does the switch fluorescence ratio read?
A: 1.03

Q: With GGACACGCTT as the sequence, how does the switch fluorescence ratio read?
A: 1.01

Q: GGACACGGGC was tested. Which switch fluorescence ratio did it give?
A: 1.02

Q: How did the switch fluorescence ratio turn out when GGACAGCTAT was run?
A: 1.12

Q: How did the switch fluorescence ratio turn out when GGACAGGGAG was run?
A: 1.01

Q: With GGACCGAGAT as the sequence, how does the switch fluorescence ratio read?
A: 1.02

Q: With GGACCGTGCG as the sequence, how does the switch fluorescence ratio read?
A: 1.02

Q: For GGACCTTAAT, which switch fluorescence ratio is on record?
A: 1.03

Q: For GGACGCGCTG, which switch fluorescence ratio is on record?
A: 0.966

Q: With GGACGCGTAG as the sequence, how does the switch fluorescence ratio read?
A: 0.998

Q: Which switch fluorescence ratio does the source give for GGACGCTTGG here?
A: 1.05

Q: GGACGCTTTT was tested. Which switch fluorescence ratio did it give?
A: 1.03

Q: For GGACGGATTA, which switch fluorescence ratio is on record?
A: 0.982

Q: How did the switch fluorescence ratio turn out when GGACGGTGCC was run?
A: 0.977

Q: Which switch fluorescence ratio does the source give for GGACTAACGT here?
A: 1.23

Q: With GGACTCACGC as the sequence, how does the switch fluorescence ratio read?
A: 1.43

Q: With GGACTCCTTA as the sequence, how does the switch fluorescence ratio read?
A: 0.984

Q: GGACTGGGCA was tested. Which switch fluorescence ratio did it give?
A: 1.01

Q: How did the switch fluorescence ratio turn out when GGACTGGTT was run?
A: 0.964

Q: For GGACTGTAAC, which switch fluorescence ratio is on record?
A: 1.21

Q: For GGAGAACGGG, which switch fluorescence ratio is on record?
A: 0.977

Q: Which switch fluorescence ratio does the source give for GGAGAAGAGG here?
A: 0.967

Q: Which switch fluorescence ratio does the source give for GGAGAATCCG here?
A: 1.05

Q: With GGAGAATGGA as the sequence, how does the switch fluorescence ratio read?
A: 0.972

Q: GGAGAATTGG was tested. Which switch fluorescence ratio did it give?
A: 0.971

Q: For GGAGACGCGA, which switch fluorescence ratio is on record?
A: 1.12

Q: For GGAGATAAGA, which switch fluorescence ratio is on record?
A: 1.01

Q: With GGAGATAATT as the sequence, how does the switch fluorescence ratio read?
A: 1.02

Q: How did the switch fluorescence ratio turn out when GGAGCAACGG was run?
A: 1.4

Q: GGAGCCAATT was tested. Which switch fluorescence ratio did it give?
A: 1.03

Q: For GGAGCTTCCA, which switch fluorescence ratio is on record?
A: 1.02

Q: How did the switch fluorescence ratio turn out when GGAGGATGCA was run?
A: 1.03

Q: GGAGGCATCG was tested. Which switch fluorescence ratio did it give?
A: 1

Q: With GGAGGCCAAG as the sequence, how does the switch fluorescence ratio read?
A: 0.976

Q: How did the switch fluorescence ratio turn out when GGAGGGCGCG was run?
A: 1.02

Q: For GGAGGGCGTT, which switch fluorescence ratio is on record?
A: 0.976

Q: With GGAGGTAACT as the sequence, how does the switch fluorescence ratio read?
A: 0.903

Q: GGAGGTTTCG was tested. Which switch fluorescence ratio did it give?
A: 1.02

Q: How did the switch fluorescence ratio turn out when GGAGTAGCCC was run?
A: 0.997

Q: With GGAGTATTG as the sequence, how does the switch fluorescence ratio read?
A: 0.974

Q: Which switch fluorescence ratio does the source give for GGAGTCAAGT here?
A: 1.04

Q: How did the switch fluorescence ratio turn out when GGAGTCATAT was run?
A: 1.12

Q: For GGAGTGCATT, which switch fluorescence ratio is on record?
A: 0.969

Q: GGAGTTAAGG was tested. Which switch fluorescence ratio did it give?
A: 0.997

Q: For GGAGTTACGG, which switch fluorescence ratio is on record?
A: 1.01

Q: With GGATAAGACT as the sequence, how does the switch fluorescence ratio read?
A: 0.989

Q: Which switch fluorescence ratio does the source give for GGATAAGTCC here?
A: 0.989

Q: GGATACGGAG was tested. Which switch fluorescence ratio did it give?
A: 1.01

Q: How did the switch fluorescence ratio turn out when GGATACTAAA was run?
A: 1.04

Q: For GGATAGACAA, which switch fluorescence ratio is on record?
A: 0.987

Q: GGATAGCTTG was tested. Which switch fluorescence ratio did it give?
A: 1.01

Q: GGATAGGCTT was tested. Which switch fluorescence ratio did it give?
A: 1.04

Q: With GGATATACCT as the sequence, how does the switch fluorescence ratio read?
A: 1.24

Q: How did the switch fluorescence ratio turn out when GGATATAGAA was run?
A: 1.02

Q: How did the switch fluorescence ratio turn out when GGATATAGTA was run?
A: 0.949

Q: Which switch fluorescence ratio does the source give for GGATATTAAC here?
A: 1.02

Q: For GGATATTGGG, which switch fluorescence ratio is on record?
A: 0.963

Q: How did the switch fluorescence ratio turn out when GGATCAATCT was run?
A: 0.974

Q: For GGATCATATA, which switch fluorescence ratio is on record?
A: 1.01

Q: For GGATCATATG, which switch fluorescence ratio is on record?
A: 1.01

Q: How did the switch fluorescence ratio turn out when GGATCATGGG was run?
A: 0.926

Q: For GGATCTATTG, which switch fluorescence ratio is on record?
A: 1.01

Q: Which switch fluorescence ratio does the source give for GGATCTGGGT here?
A: 1.05

Q: For GGATCTTATT, which switch fluorescence ratio is on record?
A: 0.954

Q: For GGATGCATGG, which switch fluorescence ratio is on record?
A: 1.04

Q: Which switch fluorescence ratio does the source give for GGATGGGCTT here?
A: 1.01

Q: For GGATGGGTT, which switch fluorescence ratio is on record?
A: 1.03

Q: How did the switch fluorescence ratio turn out when GGATGTATAT was run?
A: 0.993

Q: Which switch fluorescence ratio does the source give for GGATGTCATA here?
A: 1.04

Q: Which switch fluorescence ratio does the source give for GGATGTGACT here?
A: 0.989

Q: For GGATGTGGGC, which switch fluorescence ratio is on record?
A: 1.04

Q: GGATGTTATC was tested. Which switch fluorescence ratio did it give?
A: 0.97

Q: With GGATTAATAG as the sequence, how does the switch fluorescence ratio read?
A: 0.962

Q: Which switch fluorescence ratio does the source give for GGATTACACG here?
A: 1.09

Q: Which switch fluorescence ratio does the source give for GGATTAGAGA here?
A: 1.01

Q: With GGATTAGCGT as the sequence, how does the switch fluorescence ratio read?
A: 1.01

Q: With GGATTATACC as the sequence, how does the switch fluorescence ratio read?
A: 1.03

Q: How did the switch fluorescence ratio turn out when GGATTCGGGA was run?
A: 1

Q: GGATTGAGTA was tested. Which switch fluorescence ratio did it give?
A: 1.01

Q: GGATTGTACT was tested. Which switch fluorescence ratio did it give?
A: 0.993

Q: Which switch fluorescence ratio does the source give for GGATTGTAGT here?
A: 1.03

Q: With GGATTGTTTC as the sequence, how does the switch fluorescence ratio read?
A: 0.97

Q: For GGATTTGCAG, which switch fluorescence ratio is on record?
A: 1.02

Q: GGATTTGCGG was tested. Which switch fluorescence ratio did it give?
A: 0.941

Q: With GGATTTTGAA as the sequence, how does the switch fluorescence ratio read?
A: 0.948

Q: Which switch fluorescence ratio does the source give for GGCAAAACGA here?
A: 1.1

Q: Which switch fluorescence ratio does the source give for GGCAAATAGT here?
A: 0.995

Q: How did the switch fluorescence ratio turn out when GGCAACAATC was run?
A: 1.01

Q: How did the switch fluorescence ratio turn out when GGCAACTAGT was run?
A: 1

Q: For GGCAACTCGC, which switch fluorescence ratio is on record?
A: 1.01

Q: GGCAAGATTT was tested. Which switch fluorescence ratio did it give?
A: 1.02

Q: GGCAATCACG was tested. Which switch fluorescence ratio did it give?
A: 1.18

Q: Which switch fluorescence ratio does the source give for GGCAATCATA here?
A: 1.03

Q: GGCAATGGCA was tested. Which switch fluorescence ratio did it give?
A: 0.991

Reference: the supplement of paper PMC10126150
